# In publication PMC4336329 (PLoS ONE, 2015):
# Among all 310,000 compounds or so, about 2,200 (0.71%) showed an effect of 50% or more. The effect is printed as a negative number. The list shows a part of the results.
# Target: human ether-à-go-go-related gene (hERG) potassium channel (human, UniProt Q12809)
# Experiment: primary screen, population patch clamp on CHO cells stably expressing hERG
# Sequence of human ether-à-go-go-related gene (hERG) potassium channel (Q12809 whole entry, looked up): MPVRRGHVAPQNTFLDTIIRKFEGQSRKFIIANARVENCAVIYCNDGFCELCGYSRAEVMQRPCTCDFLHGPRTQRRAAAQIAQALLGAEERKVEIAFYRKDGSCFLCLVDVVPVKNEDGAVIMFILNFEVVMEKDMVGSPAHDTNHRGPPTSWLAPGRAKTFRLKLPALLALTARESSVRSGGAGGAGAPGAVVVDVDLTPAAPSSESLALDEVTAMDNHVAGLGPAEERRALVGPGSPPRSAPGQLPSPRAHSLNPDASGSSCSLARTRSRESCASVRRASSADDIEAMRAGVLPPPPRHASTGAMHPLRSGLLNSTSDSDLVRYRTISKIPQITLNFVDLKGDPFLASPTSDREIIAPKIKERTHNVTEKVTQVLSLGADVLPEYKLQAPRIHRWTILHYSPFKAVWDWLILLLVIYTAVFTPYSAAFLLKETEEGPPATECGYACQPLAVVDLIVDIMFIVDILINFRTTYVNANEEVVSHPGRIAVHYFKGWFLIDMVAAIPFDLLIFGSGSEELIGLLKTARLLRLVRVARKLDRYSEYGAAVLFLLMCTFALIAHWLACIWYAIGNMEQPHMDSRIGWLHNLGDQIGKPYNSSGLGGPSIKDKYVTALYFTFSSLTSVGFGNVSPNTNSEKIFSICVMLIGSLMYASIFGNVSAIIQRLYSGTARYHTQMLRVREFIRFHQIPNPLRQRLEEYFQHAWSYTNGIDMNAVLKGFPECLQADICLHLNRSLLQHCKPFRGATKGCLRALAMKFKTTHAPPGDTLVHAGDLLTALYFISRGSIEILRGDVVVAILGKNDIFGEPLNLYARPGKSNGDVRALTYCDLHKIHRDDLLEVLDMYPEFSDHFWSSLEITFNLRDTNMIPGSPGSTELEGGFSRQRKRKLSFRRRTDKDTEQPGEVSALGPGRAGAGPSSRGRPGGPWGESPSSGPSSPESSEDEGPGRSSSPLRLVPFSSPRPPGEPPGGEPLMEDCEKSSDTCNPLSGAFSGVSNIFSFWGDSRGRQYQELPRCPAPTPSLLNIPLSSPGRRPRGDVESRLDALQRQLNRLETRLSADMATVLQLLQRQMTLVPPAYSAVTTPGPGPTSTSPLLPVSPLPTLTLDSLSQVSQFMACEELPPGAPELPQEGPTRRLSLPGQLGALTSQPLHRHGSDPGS
row,Compound,"hERG current change (%, negative = inhibition) at 1uM"
1,O=C1C2CCCN2C(c2ccccc2F)N1c1cccc(Cl)c1 (stereo not drawn),6.83%
2,Cc1csc(SCC(=O)NC(=O)NC2CCCC2)n1,14.6%
3,CC[C@H](C)/C=C(C)/C=C/C1=CC2=CC(=O)[C@]3(C)OC(=O)[C@@H](C(C)=O)[C@@H]3C2=CO1,16.5%
4,Cc1ccccc1CCNC(=O)c1cc(C2CC2)nc2c1cnn2C(C)C,14.2%
5,O=C(c1ccc(Cl)cc1)N1N=CCC1(O)c1ccc(Cl)cc1 (stereo not drawn),15.4%
6,O=C(NCCCCNC(=O)c1ccc(Cl)s1)c1ccc(Cl)s1,11.6%
7,COc1ccc(N2CCN(C(=O)CCCOc3cc(=O)n(C)c4ccccc34)CC2)cc1,1.6%
8,CCN(CC)CCN1C(=O)C(=O)/C(=C(/O)c2ccc(F)cc2)C1c1ccncc1 (stereo not drawn),7.52%
9,CCOC(=O)N1CCN(C(=O)CSc2nc3c([nH]c4ccccc43)c(=O)n2C)CC1,4.31%
10,O=C(CCSc1ccccc1)N1CCN(c2ccccc2F)CC1,2.16%
11,CCN1C(=O)CSC1=Nc1ccc(Cl)c(Cl)c1,10.4%
12,S=C(Nc1ccc(Oc2ccccc2)cc1)N1CCOCC1,-16.4%
13,O=C1CCC(=O)N1c1nc2nc(-c3ccccc3)cc(-c3ccccc3)n2n1,-10.4%
14,COC(=O)c1nonc1NCn1nnc2ccccc21,9.55%
15,Oc1cccc(/C=N/c2c(-c3ccco3)nc3ccccn23)c1,12.4%
16,COc1ccc(CCN2CC(C(=O)NCCN3CCOC3=O)CCC2=O)cc1 (stereo not drawn),13.7%
17,Cc1ccc(C)c(NC(=S)N(Cc2ccco2)C(C)c2cccs2)c1 (stereo not drawn),3.46%
18,Cc1ccc(NC(=O)c2cc(N3C(=O)C4CC=CCC4C3=O)ccc2N2CCCCC2)cc1 (stereo not drawn),0.757%
19,CCCCc1nnc(NC(=O)c2ccc(S(=O)(=O)N3CCOCC3)cc2)s1,11.1%
20,CCCNC(=O)Cn1c(=O)oc2cc(S(=O)(=O)N3CC(C)CC(C)C3)ccc21 (stereo not drawn),14.6%
21,CC(C)(C)OC(=O)N1Cc2ccccc2C[C@H]1C(=O)NC1CCCC1,8.57%
22,C=CCOc1c(Br)cc(/C=C2\SC(=Nc3ccccc3)NC2=O)cc1OC,10.6%

row,Compound,"hERG current change (%, negative = inhibition) at 1uM"
1,Cc1nccn1CC(=O)N/N=C/c1ccc(O)c(O)c1,-3.16%
2,CCOc1cc(CN2CCC(CO)(Cc3cccc(C(F)(F)F)c3)CC2)ccc1OC,-78%
3,CC(C)(O)C#Cc1ccc(C(=O)N2CCCC2C(=O)O)s1 (stereo not drawn),17.7%
4,Cn1c2ccc(F)cc2c2nnc(SCC(=O)Nc3cccc(O)c3)nc21,3.36%
5,CCc1ccc2c(c1)cc(CN(C(=S)Nc1cccc(C)c1)C1CC1)c1nnnn12,1.94%
6,COc1ccc(N2CC(NC(=O)Nc3ccccc3)CC2=O)cc1 (stereo not drawn),2.45%
7,Cc1cc(C)cc(N2CC(C)Cn3c2nc2c3c(=O)[nH]c(=O)n2C)c1 (stereo not drawn),9.57%
8,O=[N+]([O-])c1ccc(Oc2cccc(F)c2)c2ccncc12,5.67%
9,CCOC(=O)c1cccc(NS(=O)(=O)c2cnc[nH]2)c1,16.7%
10,NC(=S)N/N=C/c1ccccc1OC(=O)c1cc2ccccc2oc1=O,17.5%
11,O=c1ccc2cc(S(=O)(=O)NCCCc3ccccc3)ccc2[nH]1,11.5%
12,CCNc1ccc(Br)cc(C(=O)/C=C/c2ccc(Cl)cc2)c1=O,1.03%
13,COc1ccccc1CNC(=O)C(=O)c1cn(CC(=O)N2CCCC2)c2ccccc12,7.29%
14,O=C(NCCOC(=O)c1ccccc1)c1ccccc1,13.6%
15,CCOCCCNC(=O)C(NC(=O)c1ccc2c(c1)OCO2)c1ccc(Cl)cc1 (stereo not drawn),-6.8%
16,O=C(Nc1ccncc1)C1CCN(S(=O)(=O)c2c(Cl)cccc2Cl)CC1,1.69%
17,COc1ccc(S(=O)(=O)NC2(C(F)(F)F)NC(=O)N(CCc3ccc(OC)c(OC)c3)C2=O)cc1 (stereo not drawn),11.9%
18,CC(C)(O)C#Cc1ccc(C(=O)N2CCC(C(N)=O)(N3CCCCC3)CC2)cc1,-4.93%
19,O=C(COC(=O)c1ccccc1NCCO)NCCC1=CCCCC1,-0.418%
20,Cc1cc(C(=O)Nc2ccon2)cs1,-5.3%
21,CCOC(=O)c1[nH]c(C)c(C(=O)N2CCC3(CC2)OCCO3)c1C,16.3%
22,O=C(O)CN1C(=O)NC2(CCCc3ccccc32)C1=O (stereo not drawn),15.9%

row,Compound,"hERG current change (%, negative = inhibition) at 1uM"
1,Cc1ccc(S(=O)(=O)N(C)CC(=O)NCCCc2ccccc2)cc1,8.33%
2,Cc1ccc(NC(=O)C2CCN(C(=O)OC(C)(C)C)CC2)cc1S(=O)(=O)N1CCCCC1,0.574%
3,Cc1cc(NC(=O)CCSc2ccccc2)ccc1Br,11.7%
4,Cc1cccc(C(=O)Nc2nnc(S(=O)(=O)N3CCOCC3)s2)c1,14%
5,COc1cccc(C(C)N(C)Cc2nc(COc3ccccc3)no2)c1 (stereo not drawn),12%
6,COc1ccccc1NC(=O)Cn1ncc2c1-c1ccccc1OC2,8.02%
7,COc1ccc(CNC(=O)CN(C)Cc2ccc(C(C)(C)C)cc2)cc1.O=C(O)C(=O)O,13.7%
8,O=C(Cn1c(C(F)(F)F)nc2ccccc21)OCC(=O)c1c[nH]c2ccccc12,11.7%
9,Cc1ccc(NC(=O)CCN2CCC(C(N)=O)CC2)cc1,16.5%
10,COc1ccc2cc(C#N)c(SCC(=O)N3CC(=O)Nc4ccccc43)nc2c1,10.5%
11,O=C(Nc1ccc2c(c1)C(=O)NC2=O)c1ccc2ncsc2c1,-2.01%
12,Cc1ccc(C(=O)NCCn2cc(SCC(=O)N3CCOCC3)c3ccccc32)cc1,15.2%
13,OCC1(CCc2ccccc2)CCCN(CCCc2ccccc2)C1 (stereo not drawn),-57.6%
14,COc1ccccc1/C=C/C(=O)NCC(=O)N/N=C/c1cc(Br)ccc1OC,0.37%
15,Cn1nc(-c2ccccc2)cc1NS(=O)(=O)c1ccc(C#N)cc1,14.7%
16,Cc1ccc(Cl)cc1NC(=O)C1CCCCC1C(=O)O (stereo not drawn),7.86%
17,CCc1cc(C(=O)N2CCCC(CNS(=O)(=O)c3cccs3)C2)n(C)n1 (stereo not drawn),9.55%
18,CCn1c(CC(=O)Nc2ccc(F)cc2)nnc1SCC(=O)NC1CCCC1,6.33%
19,CCOC(=O)Cn1c(N2CCOCC2)nc2c1c(=O)[nH]c(=O)n2C,13.3%
20,O=C1c2ccccc2C(=O)N1c1nc(-c2cccs2)cs1,4.33%
21,S=C(NC1CC2CCC1C2)N1CCN(c2cccc(Cl)c2)CC1 (stereo not drawn),8.82%
22,CC(=O)c1cccc(NC(=O)CCC2CCCC2)c1,11.2%

row,Compound,"hERG current change (%, negative = inhibition) at 1uM"
1,O=C(c1ccc2[nH]c(=O)c(=O)[nH]c2c1)N1CCN(c2ccccc2)CC1,5.9%
2,COC(=O)CN1C(c2ccc(OC)cc2)=Nc2ccc(Cl)cc2C1c1ccccc1 (stereo not drawn),4.65%
3,COc1cc(SC)ccc1C(=O)OCc1nc2ccsc2c(=O)[nH]1,-15.2%
4,C=Cn1ccnc1P(=S)(c1cc(N(CC)CC)ns1)c1nccn1C=C,3.97%
5,CCOc1ncccc1C(=O)OCC(=O)Nc1ccc(S(=O)(=O)N2CCCC2)cc1,-2.76%
6,CC1(C)Cc2c(sc3c2c(=N)n(Cc2ccco2)c(=O)n3Cc2ccccc2)CO1,3.6%
7,O=C(CSc1n[nH]c(-c2ccco2)n1)Nc1sc2c(c1C(=O)Nc1ccccc1)CCCC2,12.1%
8,O=C(Nc1ccc(Br)c(Cl)c1)c1ccco1,10.6%
9,CC(C)c1ccc(S(=O)(=O)N2CCN(C(=O)c3ccc(N4CCCC4)c([N+](=O)[O-])c3)CC2)cc1,-15.8%
10,CN(C)CCOC(=O)CC12CC3CC(C1)CC(CC(=O)OCCN(C)C)(C3)C2.Cl,12.2%
11,O=C(CN1C(=O)COc2ccc(S(=O)(=O)N3CCCCC3)cc21)NCc1ccc(F)cc1,20%
12,Cc1ccc(S(=O)(=O)CCC(=O)OCC(=O)c2cc(C)ccc2C)cc1,0.672%
13,CCn1c(=O)c2c(nc(SCC(=O)N3CCCC(C)C3)n2C)n(C)c1=O (stereo not drawn),9.74%
14,O=C(Oc1ccccc1F)c1ccc2c(=O)n3c(nc2c1)CCC3,11.2%
15,COc1ccc(N2CCN(C(=O)CC(C)S(=O)(=O)c3ccc4c(c3)NC(=O)CO4)CC2)cc1 (stereo not drawn),5.4%
16,O=[N+]([O-])c1ccc(O)c(/C=N/Nc2ncnc3c2cnn3-c2ccccc2)c1,15.9%
17,O=C(CSc1nnc(C2CC2)n1C1CC1)c1ccc(F)cc1,5.71%
18,Cc1nc2c(C(=O)N3CCCCC3)cnn2c(C)c1Cc1ccccc1F,2.82%
19,COc1cccc(CNC(=O)CSc2nc(=O)n(Cc3ccncc3)c3c2CCC3)c1,14.8%
20,CN1CCN(CC(=O)O)CC1,-2.82%
21,Cc1ccccc1NS(=O)(=O)c1ccc(OCC(=O)N2CCCC2)cc1,-3.55%
